Experimental findings from article PMC12820563 are described below.

The other results are listed elsewhere or left out. The list includes weakly bound sequences.

The target in the test is T1, MBP-FoxP3dN (UniProt Q99JB6).
T1 sequence: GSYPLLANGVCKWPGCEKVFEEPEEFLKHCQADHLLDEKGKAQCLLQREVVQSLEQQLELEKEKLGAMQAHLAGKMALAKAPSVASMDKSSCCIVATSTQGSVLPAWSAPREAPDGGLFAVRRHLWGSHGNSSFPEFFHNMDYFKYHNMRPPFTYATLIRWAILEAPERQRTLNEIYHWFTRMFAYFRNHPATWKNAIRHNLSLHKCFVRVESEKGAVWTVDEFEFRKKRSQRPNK
Nature of the test: PD-seq (MBP pull-down with sequencing). To be noted: 20 mM Tris-HCl pH 7.5, 100 mM NaCl, 1.5 mM MgCl2, 0.4 uM protein, 0.1 uM dsDNA library, 30 min, room temperature, amylose pull-down; high values mean tight binding; double strand, one strand shown.
Turning to “GATGATTGTTCTCCCAGCTGATGAATTACCCCCTTCGAGTAAACAAATTTTCCTAATCTTTCTGTTCAAGCGCCATCTAC”, the binding signal (RPM ratio (pull-down/input)) came to 0.287.
On to “GATGATTGTTCTCCCAGCTGATGAATTACTTTGGTCGAGTAAACAAATTTTCCTAATCTTTCTGTTCAAGCGCCATCTAC”, for which the binding signal (RPM ratio (pull-down/input)) worked out at 0.512.
The same measure for “GATGATTGTTCTCCCAGCTGATGAATTTACAAGTTCGAGTAAACAAATTTTCCTAATCTTTCTGTTCAAGCGCCATCTAC”: 0.469; for “GATGATTGTTCTCCCAGCTGATGAATTTCAGTTCTCGAGTAAACAAATTTTCCTAATCTTTCTGTTCAAGCGCCATCTAC”: 0.671.
“GATGATTGTTCTCCCAGCTGATGAATTCTCGTAATCGAGTAAACAAATTTTCCTAATCTTTCTGTTCAAGCGCCATCTAC”: the binding signal (RPM ratio (pull-down/input)) turned out to be 0.536.
To “GATGATTGTTCTCCCAGCTGATGAATTTAGATTTTCGAGTAAACAAATTTTCCTAATCTTTCTGTTCAAGCGCCATCTAC” belongs 0.795; to “GATGATTGTTCTCCCAGCTGATGAATTAAATATATCGAGTAAACAAATTTTCCTAATCTTTCTGTTCAAGCGCCATCTAC”, 0.59; to “GATGATTGTTCTCCCAGCTGATGAATTTGACCCGTCGAGTAAACAAATTTTCCTAATCTTTCTGTTCAAGCGCCATCTAC”, 0.347.
With “GATGATTGTTCTCCCAGCTGATGAATTAACCCGTTCGAGTAAACAAATTTTCCTAATCTTTCTGTTCAAGCGCCATCTAC”, the binding signal (RPM ratio (pull-down/input)) stood at 0.254.
To “GATGATTGTTCTCCCAGCTGATGAATTGTTTTTCTCGAGTAAACAAATTTTCCTAATCTTTCTGTTCAAGCGCCATCTAC” belongs 4.35; to “GATGATTGTTCTCCCAGCTGATGAATTCAAAATATCGAGTAAACAAATTTTCCTAATCTTTCTGTTCAAGCGCCATCTAC”, 0.693; to “GATGATTGTTCTCCCAGCTGATGAATTACGACGATCGAGTAAACAAATTTTCCTAATCTTTCTGTTCAAGCGCCATCTAC”, 0.326.
As for “GATGATTGTTCTCCCAGCTGATGAATTTCCACATTCGAGTAAACAAATTTTCCTAATCTTTCTGTTCAAGCGCCATCTAC”, the binding signal (RPM ratio (pull-down/input)) amounted to 0.331.
To “GATGATTGTTCTCCCAGCTGATGAATTCCGGACATCGAGTAAACAAATTTTCCTAATCTTTCTGTTCAAGCGCCATCTAC” belongs 0.323; to “GATGATTGTTCTCCCAGCTGATGAATTTGTGAGGTCGAGTAAACAAATTTTCCTAATCTTTCTGTTCAAGCGCCATCTAC”, 2.87; to “GATGATTGTTCTCCCAGCTGATGAATTCAGCTTTTCGAGTAAACAAATTTTCCTAATCTTTCTGTTCAAGCGCCATCTAC”, 2.53.
The same measure for “GATGATTGTTCTCCCAGCTGATGAATTAGAATTATCGAGTAAACAAATTTTCCTAATCTTTCTGTTCAAGCGCCATCTAC”: 0.709; for “GATGATTGTTCTCCCAGCTGATGAATTAATAATTTCGAGTAAACAAATTTTCCTAATCTTTCTGTTCAAGCGCCATCTAC”: 0.344; for “GATGATTGTTCTCCCAGCTGATGAATTCAACCCTTCGAGTAAACAAATTTTCCTAATCTTTCTGTTCAAGCGCCATCTAC”: 0.317.
The same measure for “GATGATTGTTCTCCCAGCTGATGAATTAATCAGGTCGAGTAAACAAATTTTCCTAATCTTTCTGTTCAAGCGCCATCTAC”: 0.253.
As for “GATGATTGTTCTCCCAGCTGATGAATTGAAGCGATCGAGTAAACAAATTTTCCTAATCTTTCTGTTCAAGCGCCATCTAC”, the binding signal (RPM ratio (pull-down/input)) stood at 0.452.
As to “GATGATTGTTCTCCCAGCTGATGAATTAACCGTATCGAGTAAACAAATTTTCCTAATCTTTCTGTTCAAGCGCCATCTAC”, the binding signal (RPM ratio (pull-down/input)) amounted to 0.403.
On to “GATGATTGTTCTCCCAGCTGATGAATTACCACTGTCGAGTAAACAAATTTTCCTAATCTTTCTGTTCAAGCGCCATCTAC”, for which the binding signal (RPM ratio (pull-down/input)) is 0.41.
The same measure for “GATGATTGTTCTCCCAGCTGATGAATTCATCCCTTCGAGTAAACAAATTTTCCTAATCTTTCTGTTCAAGCGCCATCTAC”: 0.459; for “GATGATTGTTCTCCCAGCTGATGAATTGCCCGTCTCGAGTAAACAAATTTTCCTAATCTTTCTGTTCAAGCGCCATCTAC”: 0.482.
Turning to “GATGATTGTTCTCCCAGCTGATGAATTCACAAGATCGAGTAAACAAATTTTCCTAATCTTTCTGTTCAAGCGCCATCTAC”, the binding signal (RPM ratio (pull-down/input)) came out at 0.236.
With “GATGATTGTTCTCCCAGCTGATGAATTTCGAAATTCGAGTAAACAAATTTTCCTAATCTTTCTGTTCAAGCGCCATCTAC”, the binding signal (RPM ratio (pull-down/input)) was found to be 0.5.
For the sequence “GATGATTGTTCTCCCAGCTGATGAATTGGCCGTTTCGAGTAAACAAATTTTCCTAATCTTTCTGTTCAAGCGCCATCTAC”, the binding signal (RPM ratio (pull-down/input)) was determined as 0.498.
“GATGATTGTTCTCCCAGCTGATGAATTCAAGACCTCGAGTAAACAAATTTTCCTAATCTTTCTGTTCAAGCGCCATCTAC”: the binding signal (RPM ratio (pull-down/input)) is 0.209.
To “GATGATTGTTCTCCCAGCTGATGAATTGGTTCGTTCGAGTAAACAAATTTTCCTAATCTTTCTGTTCAAGCGCCATCTAC” belongs 0.43.
As for “GATGATTGTTCTCCCAGCTGATGAATTTCGTAAGTCGAGTAAACAAATTTTCCTAATCTTTCTGTTCAAGCGCCATCTAC”, the binding signal (RPM ratio (pull-down/input)) was determined as 0.41.
